The source of these data is the supplement of paper PMC9446081.

Hit rate of the full screen: of about 39,000 compounds, about 220 (0.56%) showed activity. The list shows a part of the results.
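Also: static incubation at 37 °C against the wild-type strain, values averaged over two biological replicates.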

The subject of this assay is Escherichia coli K-12 BW25113. In words: relative growth (OD600 normalised to plate interquartile mean) (fraction); higher = less growth inhibition, active = 0.2 or less. Conditions: 50 µM; LB; incubation time: overnight (16-24 h).
With `Cc1noc(C)c1NC(=O)N(C)C[C@H]1Oc2ccc(NS(=O)(=O)c3ccccc3)cc2CC(=O)N([C@H](C)CO)C[C@@H]1C`, the relative growth is inactive: 0.989. Next, `C[C@H](CO)N1C[C@H](C)[C@H](CN(C)Cc2ccc(C(=O)O)cc2)Oc2ccc(NS(C)(=O)=O)cc2CC1=O`: inactive: 0.983; `Cc1cc(C(=O)Nc2cccc3c2O[C@H](CN(C)Cc2ccc4c(c2)OCO4)[C@@H](C)CN([C@H](C)CO)C3=O)n(C)n1`: inactive: 0.983.

Consider `C[C@@H]1CN([C@@H](C)CO)C(=O)Cc2cc(NS(=O)(=O)c3cn(C)cn3)ccc2O[C@H]1CN(C)Cc1ccccc1`, for which the relative growth was inactive: 0.997. Then `C[C@H](CO)N1C[C@H](C)[C@@H](CN(C)S(=O)(=O)c2ccccc2)Oc2ccc(NC(=O)CCN3CCOCC3)cc2C1=O`, with inactive: 0.992; and `C[C@@H]1CN([C@H](C)CO)C(=O)Cc2cc(NC(=O)Nc3cccc4ccccc34)ccc2O[C@H]1CN(C)Cc1ccc(Oc2ccccc2)cc1`, with inactive: 1.01. `CNC(=O)CN1CC[C@]12CCN(C(=O)c1ccn(C)n1)C2`: the relative growth was inactive: 0.999. Next, `Cc1ccc(S(=O)(=O)Nc2ccc3c(c2)C(=O)N([C@@H](C)CO)C[C@@H](C)[C@@H](CN(C)Cc2ccccc2)OCCCC[C@H](C)O3)cc1`: inactive: 1. Then `C[C@H](CO)N1C[C@H](C)[C@H](CN(C)C(=O)Nc2cccc3ccccc23)Oc2ccc(NS(=O)(=O)c3ccc(F)cc3)cc2C1=O`, with inactive: 1.01; and `CN(C)CC(=O)N1[C@H](CO)[C@@H](c2ccc(C3=CCCC3)cc2)C12CN(S(=O)(=O)Cc1ccccc1)C2`, with inactive: 0.961.

`CC(C)NC(=O)Nc1ccc2c(c1)C(=O)N([C@H](C)CO)C[C@H](C)[C@@H](CN(C)Cc1ccccc1)OCCCC[C@H](C)O2`: the relative growth was inactive: 0.985.

With `C[C@@H]1CN([C@@H](C)CO)C(=O)c2cc(NC(=O)CCC(F)(F)F)ccc2O[C@@H](C)CCCCO[C@@H]1CN(C)C(=O)Cc1ccccc1`, the relative growth was inactive: 0.983. Next, `C[C@@H]1CN([C@H](C)CO)C(=O)c2cc(C3=CCCC3)cnc2O[C@@H]1CN(C)C(=O)Nc1ccc(C(F)(F)F)cc1`: inactive: 1.01; `C[C@@H]1CN([C@@H](C)CO)C(=O)c2cccc(NC(=O)NC3CCCCC3)c2O[C@H]1CN(C)Cc1ccc(Cl)c(Cl)c1`: inactive: 0.943; `C[C@@H]1CCCCO[C@@H](CN(C)C)[C@@H](C)CN([C@H](C)CO)C(=O)c2cc(NC(=O)Nc3ccc(C(F)(F)F)cc3)ccc2O1`: inactive: 0.986. Next, `C[C@H]1CN([C@@H](C)CO)C(=O)c2cccc(NS(C)(=O)=O)c2O[C@@H]1CN(C)C(=O)Nc1ccc(F)cc1`: inactive: 0.995. Then `Cc1noc(C)c1NC(=O)Nc1ccc2c(c1)CC(=O)N([C@H](C)CO)C[C@H](C)[C@@H](CN(C)Cc1ccc(C(F)(F)F)cc1)O2`, with inactive: 0.993; and `CN(C)C(=O)C[C@H]1CC[C@@H](NC(=O)C2CCOCC2)[C@H](CO)O1`, with inactive: 0.99; and `C[C@@H]1CCCCO[C@H](CN(C)Cc2ccc(C(=O)O)cc2)[C@H](C)CN([C@H](C)CO)C(=O)c2cc(NC(=O)Nc3ccccc3)ccc2O1`, with inactive: 1.02. On to `C[C@H](CO)N1C[C@H](C)[C@H](CN(C)CC2CCCCC2)OCCCC[C@H](C)Oc2ccc(NS(=O)(=O)c3ccc(F)cc3)cc2C1=O`, for which the relative growth is inactive: 0.973. Then `COc1cccc(S(=O)(=O)N(C)C[C@@H]2Oc3ncc(C#CC(C)C)cc3C(=O)N([C@@H](C)CO)C[C@H]2C)c1`, with inactive: 0.958. Next, `COC(=O)C1=CC(CCCO)=C[C@@H](c2cccs2)N(Cc2cccc(OC(F)(F)F)c2)C=C1C(=O)OC`: inactive: 0.939; `Cc1cccc(NC(=O)Nc2ccc3c(c2)C(=O)N(C)[C@H]2CC[C@H](CC(=O)NCc4ccccc4Cl)O[C@@H]2CO3)c1`: inactive: 1.04; `CC(=O)N1C[C@@H](O)C[C@H]1C(=O)O`: inactive: 1.03.

Regarding `C[C@H](NC(=O)N(C)C[C@H]1OCc2ccccc2-c2ccccc2C(=O)N([C@H](C)CO)C[C@H]1C)c1ccccc1`, the relative growth is inactive: 1.01. Turning to `Cc1ccc(S(=O)(=O)N(C)C[C@H]2Oc3ccc(NC(=O)Cn4cnnn4)cc3C(=O)N([C@@H](C)CO)C[C@@H]2C)cc1`, the relative growth was inactive: 0.987. Then `C[C@H]1CCCCO[C@H](CN(C)S(=O)(=O)c2ccccc2)[C@@H](C)CN([C@@H](C)CO)C(=O)c2cc(NC(=O)C3CCCCC3)ccc2O1`, with inactive: 1.01. Next, `Cn1cnc(CCNC(=O)C[C@H]2CC[C@H]3[C@@H](COC[C@H](O)CN3C(=O)C3CC3)O2)c1`: inactive: 0.992; `COCCNC(=O)C[C@@H]1CC[C@H]2[C@@H](COC[C@H](O)CN2C(=O)Nc2ccccc2OC)O1`: inactive: 1.01; `Cc1noc(C)c1S(=O)(=O)Nc1cccc2c1O[C@@H](CN(C)S(=O)(=O)c1ccccc1)[C@@H](C)CN([C@H](C)CO)C2=O`: inactive: 0.987.

`CC(=O)OCC(=O)C12N=C(C)OC1CC1C3CCC4=CC(=O)C=CC4(C)C3C(O)CC12C` (configuration not stated): the relative growth was inactive: 1.11. Next, `COc1ccc(S(=O)(=O)Nc2cccc3c2O[C@@H](CN(C)S(=O)(=O)c2ccc(C)cc2)[C@H](C)CN([C@H](C)CO)C3=O)cc1`: inactive: 0.988. Next, `C[C@H]1CCCCO[C@H](CN(C)C(=O)Nc2cccc3ccccc23)[C@@H](C)CN([C@@H](C)CO)C(=O)c2cc(NS(=O)(=O)c3cn(C)cn3)ccc2O1`: inactive: 0.989; `C[C@H]1CN([C@@H](C)CO)C(=O)c2cccc(NC(=O)Nc3ccc(C(F)(F)F)cc3)c2O[C@@H]1CN(C)C(=O)Nc1ccc(F)cc1`: inactive: 0.882. Next, `C[C@@H]1CN([C@@H](C)CO)C(=O)c2cc(NC(=O)Nc3ccccc3)ccc2O[C@@H](C)CCCCO[C@H]1CN(C)Cc1ccncc1`: inactive: 1.02. For `CC(C)CC#Cc1cnc2c(c1)C(=O)N([C@@H](C)CO)C[C@H](C)[C@@H](CN(C)S(=O)(=O)c1ccccc1)O2`, the relative growth is inactive: 1.01.

As to `C[C@@H]1CN([C@@H](C)CO)S(=O)(=O)c2ccc(C#Cc3ccncc3)cc2O[C@@H]1CN(C)C(=O)C1CCCCC1`, the relative growth was inactive: 1.01.
